From paper PMC5931534, “Non-canonical activation of DAPK2 by AMPK constitutes a new pathway linking metabolic stress to autophagy” (Nature Communications, 2018)

Target: T1, Bcl-XL-L1 (human (cDNA library from HEK293 cells), UniProt Q07817-1)
T1 construct: Bcl-XL, amplified from a cDNA library of HEK293 cells and cloned into a Gaussia luciferase plasmid (GLuc(1)-X or X-GLuc(1)); source: HEK293T, transfected, in lysate
Experiment: split reporter (BiFC, NanoBiT); Protein Complementation Assay: Gaussia luciferase fragments L1 (amino acids 1-93) and L2 (94-169) fused to the two proteins, transfected in pairs into HEK293T cells; cells lysed and luminescence measured
Settings: partners not purified

B1: Beclin-1-L2 T119E (natural protein)
chain: not shown
notes: Beclin-1 from a cDNA library of HEK293 cells, in the X-GLuc(2) plasmid, with the phospho-mimicking point mutation T119E in the BH3 domain; also called T119E mutant; source: HEK293T, transfected, in lysate; not shown: Gaussia luciferase fragment L2 ([…]), C-terminal, kept
- fold decrease of luminescence signal against Beclin-1 WT: ~5 fold
